Measured values: PubChem BioAssay (NCATS)
Inconclusive results, whose numbers are uncertain, are shown with a selection of clear calls. Potencies beside an inconclusive call are fits to weak or partial responses and may not hold up. The source made the active and inactive calls. Unless noted, the call rests on the fitted dose curve; in most records, active means well fitted curve in the direction sought with a large enough effect; inconclusive means small, poorly fitted or top-dose-only effect, or another doubt; inactive means no such curve, though single readings can be large; an effect the other way counts as inactive or inconclusive.

Experiments:
[1] = biological target: Aldehyde dehydrogenase, mitochondrial (Homo sapiens) (UniProt P05091); assay: qHTS for Inhibitors of the Aldehyde Dehydrogenase Family (ALDH2) Confirmatory screens (AID 2061303; active means well fitted inhibition curve with a large enough effect; inconclusive means small, poorly fitted or top-dose-only effect; inactive means no such curve, though single readings can be large or run the other way; title and protocol of this record describe different tests; further: nearly all actives have a fitted effect of over 45% in size); conditions: ALDH inhibition qHTS; activity change, negative = inhibition: at 45.4 µM (top of the series)
[2] = qHTS for Inhibitors of the Aldehyde Dehydrogenase Family (ALDH1A2, ALDH1A3, ALDH2, ALDH3A1) (AID 2061307); conditions: ALDH inhibition qHTS; activity change, negative = inhibition: at 50.3 µM (top of the series) unless noted; further: nearly all actives have a fitted effect of over 50% in size; on Potency: test system not described further here
[3] = biological target: Aldehyde dehydrogenase, mitochondrial (Homo sapiens) (UniProt P05091); assay: qHTS for Inhibitors of the Aldehyde Dehydrogenase Family (ALDH2) Primary screen (AID 2061308); conditions: ALDH2 enzyme inhibition qHTS, 1536-well; series mostly up to 56 µM; further: nearly all actives have a fitted effect of over 55% in size
[4] = biological target: Retinaldehyde dehydrogenase 3 (Homo sapiens) (UniProt P47895); assay: qHTS for Inhibitors of the Aldehyde Dehydrogenase Family (ALDH1A3) Primary screen (AID 2061315); conditions: ALDH inhibition qHTS; activity change, negative = inhibition: at 56 µM (top of the series) unless noted
[5] = biological target: Retinal dehydrogenase 2 (Homo sapiens) (UniProt O94788); assay: qHTS for Inhibitors of the Aldehyde Dehydrogenase Family (ALDH1A2) Confirmation screens (AID 2061314); conditions: ALDH1A2 enzyme inhibition qHTS confirmation; series mostly up to 45.9 µM; further: nearly all actives have a fitted effect of over 65% in size
[6] = biological target: Aldehyde dehydrogenase 1A1 (Homo sapiens) (UniProt P00352); assay: qHTS for Inhibitors of the Aldehyde Dehydrogenase Family (ALDH1A1) Confirmatory screens (AID 2061316); conditions: ALDH inhibition qHTS; activity change, negative = inhibition: at 47.3 µM (top of the series); series mostly up to 47.3 µM; further: nearly all actives have a fitted effect of over 65% in size
Potency means the concentration at half of the fitted maximal effect; tags describe the fitted curve by direction and shape.

| Structure (SMILES) | Potency [1] | Potency [2] | Potency [3] | Potency [4] | Potency [5] | Potency [6] |
| --- | --- | --- | --- | --- | --- | --- |
| COc1ccc2ccccc2c1CN(C)CC(=O)Nc1ccc(N2CCOCC2)cc1 | inconclusive: 12.7 µM [inhibitor, partial curve] | inconclusive: 11.3 µM [inhibitor, partial curve] | inconclusive: 10 µM [inhibitor, partial curve, poor fit] | inconclusive: 17.8 µM [inhibitor, partial curve] | – | – |
| COc1ccc(N2CCN(S(=O)(=O)c3ccc4c(c3)CC(=O)N4)CC2)cc1 | inactive | inconclusive: 3.66 µM [inhibitor, full curve, poor fit] | inconclusive: 10 µM [inhibitor, partial curve] | – | inconclusive: 13 µM [inhibitor, partial curve, poor fit] | active: 5.17 µM |
| Cc1csc(CNc2ncnc3cc(-c4ccc5c(c4)OCO5)ccc23)n1 | inconclusive: 2.24 µM [inhibitor, full curve, poor fit] | inconclusive: 0.631 µM [inhibitor, full curve, poor fit] | inconclusive: 31.6 µM [inhibitor, partial curve] | – | inconclusive: 7.98 µM [inhibitor, partial curve] | active: 11.3 µM |
| CC(=O)N1CCN(c2nc(-c3ccc(Br)cc3)cs2)CC1 | active: 25.1 µM | inconclusive: 11.2 µM [inhibitor, full curve] | inconclusive: 2.82 µM [inhibitor, full curve, poor fit] | – | inconclusive: 28.3 µM [inhibitor, single point] | inactive |
| CN(C)c1ccc(-c2cc[nH]c(=O)c2N)cc1 | inconclusive: 4.49 µM [inhibitor, partial curve] | active: 12.7 µM | inconclusive: 1.58 µM [inhibitor, full curve, poor fit] | – | active: 0.225 µM | active: 4 µM |
| Cc1ccsc1CN(C)c1ncnc2ccc(-c3oc(-c4ccccc4)nc3C)cc12 | inconclusive: 20.1 µM [inhibitor, partial curve, poor fit] | active: 12.6 µM | inconclusive: 10 µM [inhibitor, partial curve] | – | inconclusive: 11.3 µM [inhibitor, partial curve] | inconclusive: 11.3 µM [inhibitor, partial curve] |
| CC(=O)N1CCN(c2ccc(NCc3ccc(-c4ccc(Br)cc4)o3)cc2)CC1 | active: 0.142 µM | active: 2.01 µM | inconclusive: 0.1 µM [inhibitor, full curve, poor fit] | – | active: 2.52 µM | active: 5.65 µM |
| CC(C)(C)OC(=O)N1CCN(c2ccc(NCc3coc(-c4ccc(C#N)cc4)c3)cc2)CC1 | active: 0.798 µM | inactive | active: 2 µM | – | inconclusive: 2.01 µM [inhibitor, full curve] | active: 3.57 µM |
| CNc1sc(-c2cccc3ccccc23)nc1C#N | inconclusive: 12.7 µM [inhibitor, partial curve] | inactive | inconclusive: 17.8 µM [inhibitor, partial curve] | – | active: 11.3 µM | active: 5.04 µM |
| Cc1ccc(-c2ccnc(N3CCC(C(N)=O)CC3)n2)cc1 | inconclusive: 1.26 µM [inhibitor, full curve, poor fit] | inconclusive: 20.1 µM [inhibitor, partial curve] | inconclusive: 0.631 µM [inhibitor, full curve] | – | inconclusive: 5.65 µM [inhibitor, partial curve, poor fit] | inconclusive: 8.96 µM [inhibitor, partial curve] |
| Oc1ccc(Nc2ccccc2F)c2cccnc12 | inconclusive: 0.634 µM [inhibitor, full curve] | inconclusive: 4.49 µM [inhibitor, partial curve, poor fit] | inconclusive: 1.78 µM [inhibitor, full curve, poor fit] | active: 1.26 µM | inconclusive: 0.201 µM [inhibitor, full curve, poor fit] | inactive |
| COc1ccnc(NC(=S)N2CCN(c3cccc(C(F)(F)F)c3)CC2)c1 | active: 12.6 µM | active: 8.91 µM | inconclusive: 25.1 µM [inhibitor, partial curve] | inconclusive: 4.47 µM [inhibitor, full curve, poor fit] | active: 22.5 µM | active: 10.1 µM |
